In PubChem BioAssay AID504339 (National Center for Advancing Translational Sciences (NCATS), 2011):
Hit rate of the full screen: of about 390,000 compounds, about 17,000 (4.4%) were called active. Inconclusive results, whose numbers are uncertain, are shown with a selection of clear calls. Calls follow the shape of the dose curve; as a rule, active = well fitted inhibition curve with a large enough effect; inconclusive = small, poorly fitted or top-dose-only effect; inactive = no such curve, though single readings can be large or run the other way. Potencies of inconclusive entries are doubtful fits and often do not repeat.

These compounds were tested against Lysine-specific demethylase 4A (Homo sapiens) (UniProt O75164) (assay: qHTS Assay for Inhibitors of JMJD2A-Tudor Domain). Conditions: AlphaScreen JMJD2A-Tudor / H3K4me3 peptide binding; series mostly up to 114 µM.
Chain of UniProt O75164 (O75164 whole entry, looked up, the tested form may be a part): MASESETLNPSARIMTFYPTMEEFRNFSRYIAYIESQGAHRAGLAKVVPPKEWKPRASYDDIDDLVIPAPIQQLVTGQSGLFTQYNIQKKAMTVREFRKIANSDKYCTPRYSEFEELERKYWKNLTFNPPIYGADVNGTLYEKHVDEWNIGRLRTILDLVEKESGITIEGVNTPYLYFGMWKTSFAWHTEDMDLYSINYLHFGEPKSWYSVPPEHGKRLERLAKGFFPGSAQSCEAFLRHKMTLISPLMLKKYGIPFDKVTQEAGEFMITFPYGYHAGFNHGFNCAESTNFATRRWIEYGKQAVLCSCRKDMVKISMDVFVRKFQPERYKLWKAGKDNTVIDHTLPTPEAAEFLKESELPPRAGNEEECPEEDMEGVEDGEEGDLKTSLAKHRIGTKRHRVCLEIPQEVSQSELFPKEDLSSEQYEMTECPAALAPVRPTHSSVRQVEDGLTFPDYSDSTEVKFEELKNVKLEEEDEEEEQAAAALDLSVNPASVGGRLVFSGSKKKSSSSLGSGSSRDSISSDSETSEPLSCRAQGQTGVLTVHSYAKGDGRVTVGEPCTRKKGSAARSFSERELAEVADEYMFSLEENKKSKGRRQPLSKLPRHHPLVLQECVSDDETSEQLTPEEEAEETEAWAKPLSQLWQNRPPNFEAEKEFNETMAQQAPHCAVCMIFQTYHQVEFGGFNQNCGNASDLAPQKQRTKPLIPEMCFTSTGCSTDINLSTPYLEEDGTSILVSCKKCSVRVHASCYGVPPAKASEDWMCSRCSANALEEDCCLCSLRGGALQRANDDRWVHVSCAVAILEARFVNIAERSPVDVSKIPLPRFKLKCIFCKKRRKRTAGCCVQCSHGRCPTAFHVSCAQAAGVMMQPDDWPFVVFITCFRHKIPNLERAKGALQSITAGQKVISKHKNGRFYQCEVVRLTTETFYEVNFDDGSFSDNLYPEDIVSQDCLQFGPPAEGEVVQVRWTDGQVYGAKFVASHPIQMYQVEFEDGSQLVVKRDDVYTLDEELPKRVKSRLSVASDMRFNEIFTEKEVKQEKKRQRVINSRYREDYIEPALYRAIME
Also: nearly all actives have a fitted effect of over 50% in size.
Potency is read from the fitted curve at half-maximal effect; tags tell the direction and shape of the fitted curve.

SMILES	Potency
CCCC(=O)N1c2ccc(-c3csc(N)n3)cc2CC1C (centres undefined)	inactive
O=C(NCc1cccnc1)/C(=C/c1ccc(-c2cccc(C(F)(F)F)c2)o1)NC(=O)c1ccccc1	inconclusive: 44.7 µM [inhibitor, partial curve]
N#C/C(=C/c1cn[nH]c1-c1cccc(Br)c1)C(=O)O	inactive
CCOC(=O)NC1(Nc2ccc(C)cc2)Oc2ccccc2O1	inconclusive: 35.5 µM [inhibitor, single point]
COc1cccc(N2CCN(c3ccc4nnc(CCC(=O)Nc5cccc(C(C)=O)c5)n4n3)CC2)c1	active: 15.8 µM
CN1C=C/C(=C\c2cc[n+](C)c3ccccc23)c2ccccc21	inconclusive: 22.4 µM [inhibitor, single point]
CCC(=O)N1N=C(c2ccc(C)o2)CC1c1ccc(N(C)C)cc1 (centres undefined)	inconclusive: 56.2 µM [inhibitor, partial curve]
Cc1cc(C)c(C)c(C(=O)c2ccccc2C(=O)O)c1C	inactive
O=C(c1cc2ccccc2o1)N1CCN(c2ccccn2)CC1	inactive
CC1(C)CC(NS(=O)(=O)OCC(Cl)(Cl)Cl)c2cc(C#N)ccc2O1 (centres undefined)	active: 31.6 µM
CCN1CCN(CCCNC(=O)c2ccc(/C=C3/Oc4ccccc4N(Cc4cccc(C)c4)C3=O)cc2)CC1	inconclusive: 50.1 µM [inhibitor, partial curve]
COc1ccc(CC(=O)N2CCc3cc(OC)c(OC)cc3C2COc2ccc(OC)cc2)cc1 (centres undefined)	inconclusive: 35.5 µM [inhibitor, partial curve]
CC1CCN(c2oc(-c3ccco3)nc2S(=O)(=O)c2ccccc2)CC1	inconclusive: 31.6 µM [inhibitor, partial curve]
NS(=O)(=O)c1ccc(S(=O)(=O)N(CCc2ccccc2)Cc2ccccn2)cc1	inactive
Cc1ccc(/C=C2/NC(=O)N(Cc3ccc(Br)cc3)C2=O)o1	active: 50.1 µM
COc1cc(C)c(C)cc1S(=O)(=O)Nc1cccc(-c2ccc(N3CCOCC3)nn2)c1	inactive
C=CCN1c2ccccc2[C@]23C[C@@H](C(=O)OC)N(C(=O)c4ccc(Br)cc4)C2=NC(C(=O)OC)=C(C(=O)OC)[C@H]13	inconclusive: 10 µM [inhibitor, full curve, poor fit]
Cc1ccc(Sc2ccc(/C=C3/C(=O)NN(c4ccccc4)C3=O)o2)cc1	inconclusive: 56.2 µM [inhibitor, partial curve]
Cc1ccc(C)c(-n2cc(-c3ccc(Cl)cc3)nc2SCC(=O)NC2CCS(=O)(=O)C2)c1 (centres undefined)	inconclusive: 70.8 µM [inhibitor, single point]
